Source: the supplement of paper PMC3334620
The full ranking holds about 33,000 sequences; the median of “E-score (-0.5 to 0.5)” is about -0.036, and the highest 2% start at about 0.37. This is one part of the list.

biological target: T1, Yer064c (UniProt P40041); experiment: PBM E-score (8-mer binding enrichment) (E-score (-0.5 to 0.5)); higher = stronger / more preferred TF binding; most listed sequences are background and not binding sites; settings: protein concentration: 200 nM; construct: GST-full length
T1 sequence: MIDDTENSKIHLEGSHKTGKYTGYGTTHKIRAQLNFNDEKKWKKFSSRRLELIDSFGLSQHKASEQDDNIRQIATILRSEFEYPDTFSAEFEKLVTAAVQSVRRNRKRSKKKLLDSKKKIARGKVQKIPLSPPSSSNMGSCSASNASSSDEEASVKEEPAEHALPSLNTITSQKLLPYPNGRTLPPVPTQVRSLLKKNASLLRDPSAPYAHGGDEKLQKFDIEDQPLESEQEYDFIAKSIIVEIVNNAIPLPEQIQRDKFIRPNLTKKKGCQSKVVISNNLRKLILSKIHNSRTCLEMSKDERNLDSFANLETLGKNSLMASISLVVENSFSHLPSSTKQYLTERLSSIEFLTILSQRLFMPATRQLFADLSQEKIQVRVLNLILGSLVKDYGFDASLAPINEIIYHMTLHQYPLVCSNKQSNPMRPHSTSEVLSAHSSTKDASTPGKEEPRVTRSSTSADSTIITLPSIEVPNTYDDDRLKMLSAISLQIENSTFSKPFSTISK
How it was run: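 GST-tagged yeast TFs (full-length or DNA-binding domain) were made by PURExpress in vitro transcription/translation and applied at about 100-200 nM to universal all-10-mer Agilent arrays. The arrays were made double-stranded by primer extension, on fresh or once-stripped slides. Bound protein was detected with fluorescent anti-GST, and scans were normalised with masliner. Each ungapped eight-base word, pooled with its reverse complement, received an E-score (modified Wilcoxon-Mann-Whitney statistic) from the Universal PBM Analysis Suite.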

Sequence | PBM E-score
ATCGACAG | -0.109
CACACAGA | 0.127
AACCTATA | 0.0106
AGCTGGTC | -0.119
CGTCTAAG | 0.166
CCAAGACG | -0.211
ACTGTCCA | -0.0357
CTTGTCGA | -0.0359
AGTGGTCA | -0.0522
ATGAGGTC | -0.132
CAAACGAA | 0.0241
AACAAACT | 0.0934
CCACCCGG | -0.226
ACTCAAAG | 0.316
CCTCGACC | -0.202
CTCAGCGA | 0.058
AGCAAGCC | -0.154
AAGCGTGA | 0.0763
CCGGATGA | 0.152
CTACCGAG | 0.0271
ACATGCAG | -0.0766
CTTTAATA | 0.149
AGACAAAC | -0.0754
CGTCGAAC | 0.026
CTAGTGGC | -0.0411

Sequence | PBM E-score
AACAGGTA | -0.197
AATAGGCC | -0.373
CGGTTTAC | -0.178
TTTAGAAA | 0.0151
CGATCTCC | -0.107
GCTCTATA | -0.219
AGTCCTGA | 0.274
AATGGACT | 0.272
CTGACTGA | 0.395
AAAGTGGG | 0.0344
AATTATAT | -0.0147
CGCGCGAG | -0.0112
AGAACAAA | 0.119
CAGCTAGC | -0.174
AATGGGAT | -0.259
CACGAGAG | -0.0841
CTAATCTC | 0.196
TCAGCTAA | 0.0494
GACCTGAA | 0.0568
CGCATGTC | -0.0394
GATACATA | 0.174
CGGAACCG | -0.161
CGTAACCA | 0.0576
CCTTCCCC | -0.161
ACACCAGA | 0.127

Sequence | PBM E-score
AAACGTTA | 0.0413
CCAAGGGC | -0.109
AAAATCCG | 0.0517
ATACTATA | -0.0244
AAAATCGA | 0.0463
GCGTCTGA | 0.00896
CTGAGGCA | -0.136
CAACTCAA | 0.03
CGTAAAAG | 0.0646
CGATGCGC | -0.176
AACGATAT | 0.228
CATTGAGC | 0.129
TAGTCAAA | 0.417
TTACGGAA | 0.0639
CGATCTTA | -0.114
CGAAGAGC | -0.184
ACGGTCCT | -0.379
ATGCGCTA | -0.0478
CCGCGTAA | -0.0443
CTTAAGAC | 0.0115
ACGAGACG | -0.224
GTTTGCCA | -0.105
AAACCCAT | 0.0621
AGTGCCGG | -0.267
AACCGTGT | 0.0249

Sequence | PBM E-score
ATGATGGG | -0.00959
GCGTCAAC | -0.156
ATAGCAAG | -0.0436
CACTAAGC | 0.1
AGCTTGAT | 0.136
ACTGCACC | 0.0587
CACGCAAG | -0.11
GTTAGTCA | 0.49
CGGGGACA | -0.232
CGAGGAGA | -0.232
ATCTGTGC | -0.182
ACAGCGCG | -0.17
AGGAAGTC | 0.249
AAGGCAAG | -0.273
AGTAGATA | 0.129
AGTAATGA | 0.217
CGCGCCTC | -0.172
GCCCGACC | -0.28
AAGTCAGT | 0.362
AGTTGCCC | 0.00742
GGGAAAAA | -0.0981
AGCCCACC | -0.259
ACATTGAT | 0.0359
GAGGGCGA | -0.23
CTGATTCC | 0.301

Sequence | PBM E-score
CAGAGGTC | -0.121
CACGCCAC | -0.0464
AAGCACGA | 0.0858
AAAACAAA | 0.0869
CGTCACGC | -0.184
CCCGATCC | -0.28
GCATTTAC | -0.0629
AATAGTTG | -0.0139
ACACCAAA | 0.0439
GCACGTGC | -0.277
GCTGGAAC | -0.129
CGGATTCC | -0.204
AGGTAACC | -0.00596
ATCTTTGA | 0.219
GCCGACAA | 0.0264
AAGCCCGT | -0.241
CTTCAGCA | -0.189
AAGACTAG | 0.338
GTCTTGAA | 0.204
TAAAAACA | 0.107
ACCCGATG | -0.109
GCACAGCC | -0.187
CCAAACGC | -0.0483
TGGGTAAA | 0.237
ACGTTGTG | 0.0216

Sequence | PBM E-score
CGGCGACA | -0.184
AATGGGAG | -0.0134
GACTCCGA | 0.417
ACGTCTCC | -0.0536
GAGAAATC | 0.0251
AATAAACA | 0.183
AGGTGGGA | -0.185
ACCGCTGA | 0.0866
GGCATATA | -0.205
GTTCCAAA | -0.00663
ACCTCGAC | -0.00179
CTAGGGTA | 0.0333
ATTCTATC | -0.00335
AGGACACC | -0.0221
AATAGCAG | -0.182
AATCGGTG | -0.051
GATCATGC | 0.134
TGAGAAAA | 0.0732
GCACTGCC | -0.4
CATTTCTC | -0.0413
AACCCCCA | -0.309
AAACCGAT | -0.0973
CAGCGGCC | -0.309
GCGGCTCA | 0.0261
CGTTATAG | 0.134

Sequence | PBM E-score
ATGTGGTG | 0.0728
ACAACAGA | 0.0838
ACATATCG | -0.147
TACCCGAA | -0.0763
CGCACCTA | -0.216
ATAGGCAG | -0.0153
CGTACTTC | -0.119
GAGGTTCA | -0.11
AACTTATC | -0.0902
ATCACCCC | 0.276
CCTAGCCG | -0.324
CTAAAAAC | -0.0226
AGCCCAGA | -0.235
GCGCGTCC | -0.31
ACTGATTA | 0.343
TCGTGTCA | -0.0428
AAACTATG | 0.0568
ACGTTAAA | -0.018
CCCTGCGC | -0.284
CCACGTAG | -0.243
CGTGCTTC | -0.175
CGTTAAAG | -0.037
